Source: PubChem BioAssay AID686970 (National Center for Advancing Translational Sciences (NCATS), 2013)
In all, about 360,000 compounds went through this assay and about 6,000 (1.7%) were called active. The inconclusive results got no clear call from the source; some entries with a clear call stand among them for comparison. Calls follow the shape of the dose curve; as a rule, active = well fitted cell-killing curve with a large enough effect; inconclusive = small, poorly fitted or top-dose-only effect, or effect the other way; inactive = flat fitted curve, though single readings scatter. No potency is given beside an inconclusive call; the fits are too rough.

Assay: qHTS for induction of synthetic lethality in tumor cells producing 2HG: qHTS for the HT-1080-NT fibrosarcoma cell line;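 also: NT is the 2HG producing partner of a matched IDH1 knockdown line; nearly all actives have a fitted effect of over 55% in size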;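 as to activity, negative = less viability: 0% = DMSO-treated cells and -100% = media-only wells without cells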
Settings: HT-1080-NT fibrosarcoma viability, CellTiter-Glo ATP luminescence, 48 h; activity, negative = less viability: at 46.1 µM (top of the series) unless noted
How it was run: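 Compounds were tested in concentration-response format on HT-1080-NT cells for 48 hours at 37 degrees C. Cell viability came from CellTiter-Glo luminescence; curves were classified by r2, response magnitude and activity.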
Potency is read from the fitted curve at half-maximal effect; tags tell the direction and shape of the fitted curve.

Row | SMILES | Potency | activity, negative = less viability
1 | O=C(Cc1ccc2c(c1)OCCO2)N/N=C/c1ccco1 | inactive | –
2 | O=S(=O)(NCc1cc(-c2ccccc2Cl)no1)c1ccc(Cl)cc1 | inconclusive [cytotoxic, single point] | –
3 | CCN1/C(=C/c2ccc3ccccc3[n+]2CC)C=Cc2ccccc21 | active: 6.51 µM | –
4 | O=C(CSc1n[nH]c(-c2ccccc2)n1)Nc1ncccn1 | inactive | –
5 | Cc1cccc(OCC(O)Cn2c(=N)n(CCN3CCCCC3)c3ccccc32)c1 (configuration not stated) | active: 10 µM | –
6 | CCn1c2ccccc2c2cc(CNCCCN3CCOCC3)ccc21 | inconclusive [cytotoxic, single point] | –
7 | O=[N+]([O-])c1ccc(CSc2nnc(SCc3ccc(Cl)cc3)s2)cc1 | inconclusive [cytotoxic, single point] | –
8 | COc1ccc(/C=N/NC(=O)c2[nH]c3ccc(Br)cc3c2-c2ccccc2)c(C(=O)O)c1OC | active: 23.1 µM | –
9 | CCCCCCCCCC[N+](C)(C)CC/C=C1/c2ccccc2Sc2ccc(Cl)cc21 | inconclusive [cytotoxic, single point] | –
10 | Cc1[nH]nc2c1C(c1ccc(-c3ccccc3C#N)o1)C(C#N)=C(N)O2 (configuration not stated) | inconclusive [cytotoxic, single point] | –
11 | Cn1c(=O)c2c(nc(Cl)n2CCOc2ccccc2)n(C)c1=O | inactive | –
12 | CC(C)n1c(/N=C/c2c[nH]c3ccccc23)nc2ccccc21 | inconclusive [cytotoxic, single point] | –
13 | Cc1ccc(CN(C)S(=O)(=O)c2c(C)noc2/C=C/N(C)C)cc1 | inconclusive [cytotoxic, single point] | –
14 | CCN(c1ccccc1)S(=O)(=O)c1ccc(Oc2ccc(-n3ccnc3)cc2)nc1 | inconclusive [cytotoxic, full curve] | –
15 | Cc1ccccc1C(=O)N=c1ccn(-c2nc3ccccc3nc2NS(=O)(=O)c2ccc(F)cc2)cc1 | inactive | –
16 | CC(=O)c1ccc(OCC(O)CN(C)CCOc2ccc(Br)cc2)cc1 (configuration not stated) | inconclusive [cytotoxic, partial curve] | –
17 | COc1ccc(C)cc1NC(=O)CNC(C)C(=O)Nc1cc(Cl)ccc1Cl (configuration not stated) | inactive | –
18 | COc1ccccc1CC(=O)NCc1ccc2c(c1)OCO2 | inactive | –
19 | CCC(C)NC(=O)Cn1c(=O)sc2ccccc21 (configuration not stated) | inconclusive [rising, single point] | –
20 | CNc1ccc2ncc(-c3ccc(OC)c(OC)c3)n2n1 | active: 18.4 µM | –
21 | O=C(O)Cc1ccc2c(c1)N(S(=O)(=O)c1cccs1)CC(C(=O)O)O2 (configuration not stated) | inactive | –
22 | COc1ccc2nc(NC(=O)CCNS(=O)(=O)c3ccc4c(c3)oc(=O)n4C)sc2c1 | inactive | –
23 | Cc1ccc(CSc2nnc(-c3ccccn3)n2Cc2cccs2)cc1 | inconclusive [cytotoxic, single point] | –
24 | O=C(Nc1ccc(Cl)cc1)C1Cc2c(-c3ccc(Cl)cc3)ccnc2O1 (configuration not stated) | inconclusive [cytotoxic, partial curve] | –

Row | SMILES | Potency | activity, negative = less viability
25 | O=[N+]([O-])c1cccnc1N1CCC(c2cc(-c3cccc(C(F)(F)F)c3)n[nH]2)CC1 | inconclusive [cytotoxic, single point] | –
26 | CCOC(=O)c1cccc(Nc2ncnc3ccc(C)cc23)c1 | inconclusive [cytotoxic, partial curve] | –
27 | CN/C(=C/[N+](=O)[O-])NCCSCc1csc(CN(C)C)n1 | inconclusive [rising, partial curve, poor fit] | –
28 | Cc1ccc(S(=O)(=O)NC(CC(C)C)C(=O)N2CCC(C)CC2)cc1 (configuration not stated) | inactive | –
29 | O=C(NC1CCS(=O)(=O)C1)c1cccs1 (configuration not stated) | inactive | –
30 | Cn1c(SCc2nc3ccccc3c(=O)[nH]2)nc2ccccc21 | inactive | –
31 | COc1ccc(OC)c(-c2nc(C(=O)NC3CCN(Cc4ccccc4)CC3)cc3c2[nH]c2ccccc23)c1 | inconclusive [cytotoxic, partial curve] | –
32 | CCN(C(=O)CN1CCN(c2ccc(O)cc2)CC1)c1c(N)n(Cc2ccccc2)c(=O)[nH]c1=O | inactive | –
33 | C(=N\N(Cc1ccccc1)c1ccccc1)/c1cccnc1 | inactive | –
34 | CC(C)Cn1cnc2c(c(-c3ccccc3)c(-c3ccccc3)n2Cc2ccco2)c1=N | inconclusive [cytotoxic, single point] | –
35 | Cc1cccc(N2CCN(C(=O)c3ccc4[nH]c(C)c(C)c4c3)CC2)c1C | inconclusive [cytotoxic, partial curve] | –
36 | O=C(N/N=C/c1c[nH]c2ccc(Br)cc12)c1ccn(Cc2ccc(Cl)cc2Cl)n1 | inconclusive [cytotoxic, single point] | –
37 | Cc1ccc(CNC(=O)CSc2nc3c(sc4ccccc43)c(=O)n2CCCN2CCCC2)cc1 | inconclusive [cytotoxic, single point] | –
38 | C=C(C)COc1ccc(-c2nc(N)nc(C)c2Oc2ccccc2OC)c(O)c1 | inconclusive [cytotoxic, single point] | –
39 | CC(=O)ON=C1C=CC(=C(C#N)c2ccccc2)C=C1 | active: 7.31 µM | –
40 | CC(=O)Nc1ccc(CNc2nc(NCC3CC3)nc3ccsc23)cc1 | inconclusive [cytotoxic, partial curve] | –
41 | O=c1oc(-c2cccs2)nc2sc3c(c12)CCCC3 | inactive | –
42 | COc1ccc(S(=O)(=O)n2nc(-c3ccc(Cl)cc3)cc2N)cc1 | active: 18.4 µM | –
43 | O=C(Nc1ccc2nn(-c3ccccc3)nc2c1)c1ccc(Br)o1 | inconclusive [cytotoxic, single point] | –
44 | CS(=O)(=O)c1ccc(C(=O)OCC(=O)NCc2cccs2)cc1[N+](=O)[O-] | inconclusive [cytotoxic, single point] | –
45 | Cc1cc(SCC(=O)Nc2cccc(S(=O)(=O)N3CCOCC3)c2)nc2ccccc12 | inactive | –
46 | Cc1ccsc1C(=O)NC1CCCN(Cc2ccc(Cl)cc2)C1 (configuration not stated) | inactive | –
47 | O=C(Nc1ccc2oc(-c3ccncc3)nc2c1)c1ccco1 | – | inconclusive: 15.9%
